# Results from the supplement of paper PMC9334596.
# Several values for one entry are separate records, joined by “and”; a condition that tells them apart may be missing. Equal entries are not always repeated. Whole data set: some 5,300 compounds, median “PER2::LUC luminescence relative to vehicle control” near 0.96, cut for the highest 2% near 1.3. Some of the results follow.
# System: mPer2Luc MEF
# Test: PER2::LUC luminescence relative to vehicle control (fold of vehicle); higher = higher PER2::LUC reporter signal
# Conditions: 10 µM
# How it was run: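 Mouse embryonic fibroblasts carrying the mPer2Luc reporter were seeded at ~3000 cells per well in 384-well plates, 48 h before compounds from commercial libraries were added at 10 μM. Cells were grown in DMEM with 10% FBS at 37 °C and 5% CO2. Luminescence was read with the ONE-Glo luciferase assay system 24 h and 30 h after treatment, followed by an alamarBlue viability assay. The value is PER2::LUC luminescence as fold of vehicle control.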
SMILES,PER2::LUC luminescence (time after treatment 24 h),PER2::LUC luminescence (time after treatment 30 h)
C[C@H](CCC(=O)O)[C@H]1CC[C@H]2[C@@H]3C(=O)C[C@@H]4CC(=O)CC[C@]4(C)[C@H]3CC(=O)[C@]12C,0.953 and 0.695 and 0.912,1.04 and 1.09 and 0.869
CCOC(=O)C1=C(C)NC(C)=C(C(=O)OC)C1c1cccc(Cl)c1Cl (configuration not stated),0.973,0.833
CCCCOC(=O)OCCCC,1,1.02
Cc1cc(C)c(/C=C2\C(=O)Nc3ccc(Cl)cc32)[nH]1,1.06,1.02
O=C1c2c(O)ccc(O)c2C(=O)c2c(NCCNCCO)ccc(NCCNCCO)c21,0.575,0.427
CCN1C(=O)C=CC1=O,1.22,1.02
O=C(NC(Cc1cc(=O)[nH]c2ccccc12)C(=O)O)c1ccc(Cl)cc1 (configuration not stated),0.677,0.798
COc1cc(O)cc(OC)c1OC,0.93,0.903
COC(=O)/C=C/C(=O)OC,1.13,0.827
COC(=O)[C@H]1[C@H]2C[C@H]3c4[nH]c5cc(OC)ccc5c4CCN3C[C@H]2C[C@@H](OC(=O)c2cc(OC)c(OC)c(OC)c2)[C@@H]1OC,0.926,0.999
CNc1nc(Nc2ccc(C(=O)N3CCOCC3)cc2OC)ncc1Cl,0.829,0.92
OC[C@H]1O[C@@H](O[C@H]2[C@H](O)[C@@H](O)C(O)O[C@@H]2CO)[C@H](O)[C@@H](O)[C@H]1O (some centres not stated),1.03,1.06
COC(=O)C[C@H]1C2(C)CC34OC5(C)O[C@@]6([C@H](OC)C(OC(=O)C(C)C)[C@]7(C)C(/C(=C(/OC)C(C)C)C(=O)O[C@H]7c7ccoc7)[C@@]6(O5)[C@H](OC)[C@@]3(OC)C2OC(C)=O)[C@]14C (some centres not stated),0.954,0.978
C[N+](C)(C)CCOC(N)=O,0.681,1.23
CC(C)c1cc(C(C)C)c(CC(=O)NS(=O)(=O)Oc2c(C(C)C)cccc2C(C)C)c(C(C)C)c1,1.05,0.874
CC(C)(C)NC[C@H](O)COc1cccc2c1CCCC2=O,0.93,0.875
OC[C@H]1NC[C@@H](O)[C@@H]1O,1.04,0.79
CC(C)[C@H](NC(=O)OCc1ccccc1)C(=O)N[C@H](C=O)Cc1ccccc1,0.941,0.887
CCCNC(C)(C)COC(=O)c1ccccc1,0.894,0.968
Cc1c(C(=O)N2CCOc3ccc(-c4ccc(N)nc4)cc3C2)ccc(S(C)(=O)=O)c1F,0.365,0.4
C=C[C@@]1(C)CC(=O)[C@@]2(O)[C@](C)(O1)[C@@H](O)[C@@H](O)C1C(C)(C)CC[C@H](O)[C@@]12C (some centres not stated),0.964,0.709

SMILES,PER2::LUC luminescence (time after treatment 24 h),PER2::LUC luminescence (time after treatment 30 h)
C[C@H](Nc1ncnc2nc[nH]c12)c1cc2cccc(Cl)c2c(=O)n1-c1ccccc1,0.643,0.535
O=C1CSc2ccccc2N1Cc1cccc(C(F)(F)F)c1,0.887,0.88
CC(=O)Nc1ccc(OC(C)=O)cc1,0.973 and 0.928,1.08 and 0.975
NC1CCN(c2c(F)cc3c(=O)c(C(=O)O)cn(C4CC4)c3c2Cl)C1 (configuration not stated),0.93 and 0.841,0.919 and 0.915
NC[C@@H]1O[C@H](O[C@H]2[C@@H](O)[C@H](O[C@@H]3[C@@H](O)[C@H](N)C[C@H](N)[C@H]3O[C@H]3O[C@H](CN)[C@@H](O)[C@H](O)[C@H]3N)O[C@@H]2CO)[C@H](N)[C@@H](O)[C@@H]1O,1.01 and 1.06,0.842 and 1.08
CCC1(C)CC(=O)NC1=O (configuration not stated),0.883,1.18
CC(C)(O)CC(=O)NCCn1ccc2ncnc(Nc3ccc(Oc4cccc(C(F)(F)F)c4)c(Cl)c3)c21,0.931,0.834
Cc1nc2c([nH]1)c(=O)n(C)c(=O)n2Cc1ccco1,1.05,0.952
c1cc(OCCN2CCCCC2)cc(-c2n[nH]c3ccc(-c4nnc[nH]4)cc23)c1,0.76,1
C[N+](C)(CCOc1ccccc1)Cc1ccccc1.O=C([O-])c1cc2ccccc2cc1O,1,0.993
CC(NCCc1ccc(O)cc1)C(O)c1ccc(O)cc1 (configuration not stated),1.1,1.08
COc1ccc(C(C)=O)c(OC)c1,0.865,0.95
CC(=O)N[C@H]1[C@H]([C@H](O)[C@H](O)CO)O[C@@](Oc2c[nH]c3ccc(Br)c(Cl)c23)(C(=O)O)C[C@@H]1O,1,0.967
CCc1nn(CCCN2CCN(c3cccc(Cl)c3)CC2)c(=O)n1CCOc1ccccc1,0.812 and 0.818,0.781 and 0.615
NC1CONC1=O (racemic),1.02,0.833
CC(C)c1cnn2c(NCc3ccccc3)cc(NCCCCCCN)nc12,0.368 and 0.467,0.899 and 0.658
CN(C)CCCc1cc(C(=O)Nc2ccc(-c3ccncc3)cc2)ccc1O,0.539,0.511
CN1CCN(c2ccc3[nH]c(-c4ccc5[nH]c(-c6ccc(O)cc6)nc5c4)nc3c2)CC1,0.495,0.54
O=C(c1ccc(F)c(F)c1Nc1ccc(I)cc1F)N1CC(O)([C@@H]2CCCCN2)C1,0.07,0.035
O=S(=O)(c1cccc2cnccc12)N1CCCNCC1,0.819 and 0.725,0.846 and 0.795
COc1cc2nc(N3CCCN(C)CC3)nc(NC3CCN(Cc4ccccc4)CC3)c2cc1OC,,1.03 and 1.15 and 0.389

SMILES,PER2::LUC luminescence (time after treatment 24 h),PER2::LUC luminescence (time after treatment 30 h)
CCC(C)(C)C(=O)O[C@H]1C[C@@H](C)C=C2C=C[C@H](C)[C@H](CC[C@@H]3C[C@@H](O)CC(=O)O3)[C@H]21,0.454,0.415
CCNC1(C(N)=O)CCN(c2ncnc3c2nc(-c2ccccc2Cl)n3-c2ccc(Cl)cc2)CC1,0.716,0.771
C[C@@H]1CN(c2c(F)c(F)c3c(=O)c(C(=O)O)cn(C4CC4)c3c2F)C[C@H](C)N1,0.849,0.813
CCCCS(=N)(=O)CCC(N)C(=O)O (configuration not stated),1.03,0.971
O=C(CSc1nc2c(c(=O)n1-c1ccccc1)SCC2)Nc1ccc(-c2ccccc2)cn1,0.983,0.925
COc1cccc(OC)c1OCCNCC1CSc2ccccc2O1 (configuration not stated),0.914,0.859
CCOC(=O)CC(=O)N1CCSC1COc1ccccc1OC (configuration not stated),0.948,1.09
CC(=O)Oc1ccc(C(c2ccc(OC(C)=O)cc2)c2ccccn2)cc1,0.897,0.948
CC1(C)CC2C1CC[C@]1(CBr)CCC3C(CC(=O)O)C(=O)O[C@@]32C1 (some centres not stated),1.04,0.929
COc1cc(CNC(=O)CCCCCCC(C)C)ccc1O,1.03,0.876
O=[N+]([O-])c1ccc(O)c2ncccc12,0.562,0.581
N#CC[C@H](C1CCCC1)n1cc(-c2ncnc3[nH]ccc23)cn1,0.99,1.13
O=C1CC[C@]23/C=C/C(=O)NCCCCNCCCNC(=O)/C=C/c4ccc(c2c4)O[C@@H]3C1,0.978,0.915
CN(C[C@@H]1COCCO1)S(=O)(=O)Nc1ccc2ccc3ncc(-c4cnn(C)c4)cc3c(=O)c2c1,0.792,0.671
CC(O)(CC(=O)O)CC(=O)O,1.07 and 0.607,1.05 and 1.01
CCCCOC(=O)c1cc2c(cn1)[nH]c1ccccc12,1.05,0.959
COc1cc(NC(=O)Nc2cccc(CNC(=O)O[C@H]3CCOC3)c2)ccc1-c1cnco1,0.791,0.783
CC1CCC(C(C)C)C(O)C1 (racemic),1.02,1.25
CCCc1nn(C)c2c(=O)[nH]c(-c3cc(S(=O)(=O)N4CCN(C)CC4)ccc3OCC)nc12,0.769 and 0.533,0.924 and 1.09
COc1cc(O)c(C(=O)/C=C/c2ccccc2)c(OC)c1,0.907,0.937
CC(=O)Nc1ccc(S(=O)(=O)c2ccc(NC(C)=O)cc2)cc1,1.1,0.885

SMILES,PER2::LUC luminescence (time after treatment 24 h),PER2::LUC luminescence (time after treatment 30 h)
c1ccc(-c2nn3c(c2-c2ccnc4cc(OCCN5CCOCC5)ccc24)CCC3)nc1,0.646,0.598
C[S+](CC[C@H](N)C(=O)[O-])C[C@H]1O[C@@H](n2cnc3c(N)ncnc32)[C@H](O)[C@@H]1O (some centres not stated),1.04,0.878
O=C(O)c1ccccc1Nc1cccc(C(F)(F)F)c1,0.808,1.11
OCCc1ccccc1,0.801 and 0.495,1.25 and 0.971
O=C(c1ccc(F)cc1)C1CCN(CCn2c(=S)[nH]c3ccccc3c2=O)CC1,0.979,0.936
O=C(O)Cn1nnc(-c2cc(N3CCC(Oc4cc(F)ccc4Br)CC3)no2)n1,1.24,1.15
Cc1cccc(C)c1OCC(=O)N[C@@H](Cc1ccccc1)[C@@H](O)C[C@H](Cc1ccccc1)NC(=O)[C@H](C(C)C)N1CCCNC1=O,0.908,0.88
Clc1ccc(C(c2ccccc2Cl)C(Cl)Cl)cc1 (configuration not stated),0.862 and 1.09 and 1.15,0.871 and 1.12 and 1.02
O=C1O[C@H]([C@@H](O)CO)C(O)=C1O,1.11 and 1.05,0.913 and 0.929
CCCCN1CCCC[C@H]1C(=O)Nc1c(C)cccc1C,0.953,0.997
C[C@@H]1CC[C@@]2(OC1)O[C@H]1C[C@H]3[C@@H]4CC=C5C[C@@H](O)CC[C@]5(C)[C@H]4CC[C@]3(C)[C@H]1[C@@H]2C,0.916,0.872
CNCc1ccc(C)c(NC(=O)c2ccc(Nc3nc(-c4ccccc4)c4ccccc4n3)cc2)c1,0.439,0.475
CCCCCCCCCCCCCCCCCCNC(=O)OCC(COP(=O)([O-])OCC[n+]1ccsc1)OC (configuration not stated),0.987,0.869
COc1cc(CCc2cc(NC(=O)c3ccc(N4CC(C)NC(C)C4)cc3)n[nH]2)cc(OC)c1 (configuration not stated),0.561,0.448
CC(C)=CCC[C@](C)(O)[C@H]1CC[C@]2(C)[C@@H]1[C@H](O)C[C@@H]1[C@@]3(C)CC[C@H](O)C(C)(C)[C@@H]3[C@@H](O)C[C@]12C,1.05,0.998
O=C(O)C1(c2ccc(-c3ccc(Cl)c(Cl)c3)c(F)c2)CC1,1.14,1.11
O=C1Nc2ccc(Cl)cc2[C@@](C#CC2CC2)(C(F)(F)F)O1,1.09,1.06
c1ccc2sc(N3CCN(Cc4ccc5c(c4)OCO5)CC3)nc2c1,1.06,0.947
NCCCS(=O)(=O)O,1.03 and 1.06 and 1.09,1.11 and 1.02 and 0.815
Cc1c(S(=O)(=O)O)oc2c1C(=O)C(=O)c1c-2ccc2c1CCCC2(C)C,0.998,0.889
N#C/C(=C/c1ccc(O)c(O)c1)C(=O)NCc1ccccc1,0.992,1.05
